Results taken from the supplement of paper PMC8728848.
The other results are listed elsewhere or left out.

Tests used:
Test in all cases: glycan array binding signal (z-score within array); higher = stronger binding
Conditions in all cases: glycan notation: IUPAC condensed, linker removed
[1] = biological target: Man(a1-3)[Man(a1-6)]Man(a1-6)[Man(a1-3)]Man
Outline: (§1)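 From the Consortium for Functional Glycomics database, 3228 arrays were curated, keeping only those whose protein sequence was available. Binding is given as a within-array Z-score averaged across arrays sharing a protein sequence and across linkers. Negative Z-scores can be read as non-binding.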

[2] = biological target: Man(a1-3)[Man(a1-6)]Man(a1-6)[Man(a1-3)]Man(b1-4)GlcNAc(b1-4)GlcNAc
Outline: as §1

[3] = biological target: Man(a1-3)[Man(a1-6)]Man(b1-4)GlcNAc(b1-4)GlcNAc
Outline: as §1

Man(a1-6)Man = biological target: Man(a1-6)Man
Outline: as §1

Man(b1-4)GlcNAc = biological target: Man(b1-4)GlcNAc
Outline: as §1

Neu5Ac(a2-3)Gal = biological target: Neu5Ac(a2-3)Gal
Outline: as §1

[4] = biological target: Neu5Ac(a2-3)Gal(b1-3)GalNAc
Outline: as §1

[5] = biological target: Neu5Ac(a2-3)Gal(b1-3)GalNAc(b1-3)Gal(a1-4)Gal(b1-4)Glc
Outline: as §1

[6] = biological target: Neu5Ac(a2-3)Gal(b1-3)GalNAc(b1-3)Gal(b1-4)GlcNAc
Outline: as §1

[7] = biological target: Neu5Ac(a2-3)Gal(b1-3)GalNAc(b1-4)[Neu5Ac(a2-3)]Gal(b1-4)Glc
Outline: as §1

[8] = biological target: Neu5Ac(a2-3)Gal(b1-3)GalNAc6S
Outline: as §1

[9] = biological target: Neu5Ac(a2-3)Gal(b1-3)GlcNAc
Outline: as §1

[10] = biological target: Neu5Ac(a2-3)Gal(b1-3)GlcNAc(b1-3)Gal(b1-3)GlcNAc
Outline: as §1

[11] = biological target: Neu5Ac(a2-3)Gal(b1-3)GlcNAc6S
Outline: as §1

[12] = biological target: Neu5Ac(a2-3)Gal(b1-3)[Fuc(a1-4)]GlcNAc
Outline: as §1

[13] = biological target: Neu5Ac(a2-3)Gal(b1-3)[Fuc(a1-4)]GlcNAc(b1-3)Gal(b1-4)[Fuc(a1-3)]GlcNAc
Outline: as §1

[14] = biological target: Neu5Ac(a2-3)Gal(b1-3)[Neu5Ac(a2-3)Gal(b1-4)]GlcNAc
Outline: as §1

[15] = biological target: Neu5Ac(a2-3)Gal(b1-3)[Neu5Ac(a2-6)]GalNAc
Outline: as §1

Neu5Ac(a2-3)Gal(b1-4)Glc = biological target: Neu5Ac(a2-3)Gal(b1-4)Glc
Outline: as §1

[16] = biological target: Neu5Ac(a2-3)Gal(b1-4)GlcNAc
Outline: as §1

[17] = biological target: Neu5Ac(a2-3)Gal(b1-4)GlcNAc(b1-2)Man(a1-3)[GlcNAc(b1-2)Man(b1-4)GlcNAc(b1-2)Man(a1-6)]Man(b1-4)GlcNAc(b1-4)GlcNAc
Outline: as §1

[18] = biological target: Neu5Ac(a2-3)Gal(b1-4)GlcNAc(b1-2)Man(a1-3)[Neu5Ac(a2-6)Gal(b1-4)GlcNAc(b1-2)Man(a1-6)]Man(b1-4)GlcNAc(b1-4)GlcNAc
Outline: as §1

[19] = biological target: Neu5Ac(a2-3)Gal(b1-4)GlcNAc(b1-3)Gal(b1-3)GlcNAc
Outline: as §1

[20] = biological target: Neu5Ac(a2-3)Gal(b1-4)GlcNAc(b1-3)Gal(b1-4)GlcNAc
Outline: as §1

[21] = biological target: Neu5Ac(a2-3)Gal(b1-4)GlcNAc(b1-3)Gal(b1-4)GlcNAc(b1-3)Gal(b1-4)GlcNAc
Outline: as §1

[22] = biological target: Neu5Ac(a2-3)Gal(b1-4)GlcNAc(b1-3)Gal(b1-4)[Fuc(a1-3)]GlcNAc
Outline: as §1

[23] = biological target: Neu5Ac(a2-3)Gal(b1-4)GlcNAc(b1-6)[Gal(b1-3)]GalNAc
Outline: as §1

[24] = biological target: Neu5Ac(a2-3)Gal(b1-4)GlcNAc(b1-6)[Neu5Ac(a2-3)Gal(b1-3)]GalNAc
Outline: as §1

[25] = biological target: Neu5Ac(a2-3)Gal(b1-4)GlcNAc6S
Outline: as §1

[26] = biological target: Neu5Ac(a2-3)Gal(b1-4)[Fuc(a1-3)]GlcNAc
Outline: as §1

[27] = biological target: Neu5Ac(a2-3)Gal(b1-4)[Fuc(a1-3)]GlcNAc(b1-3)Gal
Outline: as §1

[28] = biological target: Neu5Ac(a2-3)Gal(b1-4)[Fuc(a1-3)]GlcNAc(b1-3)Gal(b1-4)GlcNAc
Outline: as §1

[29] = biological target: Neu5Ac(a2-3)Gal(b1-4)[Fuc(a1-3)]GlcNAc(b1-3)Gal(b1-4)[Fuc(a1-3)]GlcNAc(b1-3)Gal(b1-4)[Fuc(a1-3)]GlcNAc
Outline: as §1

[30] = biological target: Neu5Ac(a2-3)Gal(b1-4)[Fuc(a1-3)]GlcNAc(b1-6)[Gal(b1-3)]GalNAc
Outline: as §1

[31] = biological target: Neu5Ac(a2-3)Gal(b1-4)[Fuc(a1-3)]GlcNAc6S
Outline: as §1

[32] = biological target: Neu5Ac(a2-3)Gal6S(b1-4)GlcNAc
Outline: as §1

[33] = biological target: Neu5Ac(a2-3)Gal6S(b1-4)[Fuc(a1-3)]GlcNAc
Outline: as §1

Neu5Ac(a2-3)GalNAc = biological target: Neu5Ac(a2-3)GalNAc
Outline: as §1

[34] = biological target: Neu5Ac(a2-3)GalNAc(b1-4)GlcNAc
Outline: as §1

[35] = biological target: Neu5Ac(a2-3)[GalNAc(b1-4)]Gal(b1-4)Glc
Outline: as §1

[36] = biological target: Neu5Ac(a2-3)[GalNAc(b1-4)]Gal(b1-4)GlcNAc
Outline: as §1

[37] = biological target: Neu5Ac(a2-3)[Neu5Ac(a2-6)]GalNAc
Outline: as §1

Neu5Ac(a2-6)Gal = biological target: Neu5Ac(a2-6)Gal
Outline: as §1

Neu5Ac(a2-6)Gal(b1-4)Glc = biological target: Neu5Ac(a2-6)Gal(b1-4)Glc
Outline: as §1

[38] = biological target: Neu5Ac(a2-6)Gal(b1-4)GlcNAc
Outline: as §1

B1: CBM32-4 (Clostridium perfringens), P26831 (protein)
chain: MGSSHHHHHHSSGLVPRGSHMASVYEPSLVDAYVGDDGAKKAVDGDLKTRVKFLGAPSTGDTIVYDLGQEILVDNLKYVVLDTEVDHVRDGKIQLSLDGETWTDAINIGDGVENGVDDMFSTPLKNGYKHGNQSGGIVPIDSAYVEGDNLNQKARYVRILFTAPYRHRWTVINELMINNGEYIPTVNDPT
- glycan array binding signal (z-score) [1]: -0.127
- glycan array binding signal (z-score) [2]: 0.1
- glycan array binding signal (z-score) [3]: -0.329
- glycan array binding signal (z-score) (Man(a1-6)Man): 0.796
- glycan array binding signal (z-score) (Man(b1-4)GlcNAc): -0.243
- glycan array binding signal (z-score) (Neu5Ac(a2-3)Gal): -0.214
- glycan array binding signal (z-score) [4]: -0.071
- glycan array binding signal (z-score) [5]: -0.509
- glycan array binding signal (z-score) [6]: -0.526
- glycan array binding signal (z-score) [7]: -0.441
- glycan array binding signal (z-score) [8]: 0.512
- glycan array binding signal (z-score) [9]: -0.422
- glycan array binding signal (z-score) [10]: -0.344
- glycan array binding signal (z-score) [11]: 0.564
- glycan array binding signal (z-score) [12]: -0.414
- glycan array binding signal (z-score) [13]: -0.427
- glycan array binding signal (z-score) [14]: -0.397
- glycan array binding signal (z-score) [15]: -0.265
- glycan array binding signal (z-score) (Neu5Ac(a2-3)Gal(b1-4)Glc): -0.183
- glycan array binding signal (z-score) [16]: -0.421
- glycan array binding signal (z-score) [17]: -0.325
- glycan array binding signal (z-score) [18]: -0.306
- glycan array binding signal (z-score) [19]: -0.38
- glycan array binding signal (z-score) [20]: -0.287
- glycan array binding signal (z-score) [21]: -0.386
- glycan array binding signal (z-score) [22]: -0.514
- glycan array binding signal (z-score) [23]: -0.111
- glycan array binding signal (z-score) [24]: -0.387
- glycan array binding signal (z-score) [25]: -0.013
- glycan array binding signal (z-score) [26]: -0.394
- glycan array binding signal (z-score) [27]: -0.572
- glycan array binding signal (z-score) [28]: 0.105
- glycan array binding signal (z-score) [29]: -0.457
- glycan array binding signal (z-score) [30]: -0.201
- glycan array binding signal (z-score) [31]: -0.286
- glycan array binding signal (z-score) [32]: -0.009
- glycan array binding signal (z-score) [33]: 0.279
- glycan array binding signal (z-score) (Neu5Ac(a2-3)GalNAc): -0.166
- glycan array binding signal (z-score) [34]: -0.527
- glycan array binding signal (z-score) [35]: -0.412
- glycan array binding signal (z-score) [36]: -0.461
- glycan array binding signal (z-score) [37]: 0.201
- glycan array binding signal (z-score) (Neu5Ac(a2-6)Gal): -0.431
- glycan array binding signal (z-score) (Neu5Ac(a2-6)Gal(b1-4)Glc): -0.291
- glycan array binding signal (z-score) [38]: -0.295
